This is one part of the list. Cut-off read from the data, not from the text of the source: active = 3.2 or more and inactive = the rest. Most of these values are background signal.
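Note: displayed peptides selected on beads carrying the immobilized SH2 domain, with library peptides lacking any tyrosine serving as negative controls.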

The target of one assay is SHP2 C-SH2 domain E139D. The experiment in a line: enrichment score (SH2-bound / input frequency) (ratio); bacterial display of known human phosphotyrosine sites (pTyr-Var adds point mutants) read by sequencing; higher = stronger binding; tyrosines were phosphorylated by kinases first. The note with it: peptide library: pTyr-Var.
In the case of CYCSWYRGWAP [TIMP3_Y195_G190C], the enrichment score is active: 3.88.
Regarding KMLEKYKERLN [TLK2_Y259], the enrichment score was inactive: 1.17.
For SSPVLYLSPET [TJP1_Y931_P930L], the enrichment score is inactive: 0.75.
For the molecule KQLYAYKMLMA [TMC2_Y209], the enrichment score was inactive: 1.26.
Regarding VRSNHYDPEED [TJP1_Y1346], the enrichment score was inactive: 0.42.
Consider DASENYFVMDS [TMEM240_Y77_T80M], for which the enrichment score is inactive: 0.898.
On to GCCSWYRGWAP [TIMP3_Y195_Y191C], for which the enrichment score is inactive: 2.19.
Take KRLYAYKMLMA [TMC2_Y209_Q205R]: the enrichment score is active: 3.91.
On to CFCSWYRGWAP [TIMP3_Y195_G190C_YF], for which the enrichment score is active: 4.44.
The same measure, in the same setting: then LINSVYGCSRQ [TMPRSS6_Y290_T287N], with inactive: 0.921; and GFCSWYRGWAP [TIMP3_Y195_YF], with inactive: 1.06.
YQCKHYACIRQ [TIMP3_Y182_S179C]: the enrichment score is active: 4.38.
For the molecule VTPSEYLEIVR [TMEM130_Y412_E407V], the enrichment score is inactive: 1.02.
Regarding VSSPKYGSDDE [TMCC2_Y473], the enrichment score was inactive: 0.553.
Regarding FGFPGYQSKHF [TIMP3_Y177_YF], the enrichment score was inactive: 0.981.
For the molecule LITSVYGCSRQ [TMPRSS6_Y290], the enrichment score is inactive: 0.881.
Take FSNVLYRPRGP [TMIGD2_Y197_A202P_YF]: the enrichment score was inactive: 0.347.
On to DQLVKYGVNPG [TMPO_Y127], for which the enrichment score is inactive: 0.818.

Another assay deals with SHP2 C-SH2 domain wild-type. The assay is described as above. As to conditions: peptide library: pTyr-Var.
For the molecule CYCSWYRGWAP [TIMP3_Y195_G190C], the enrichment score is active: 3.6.
Take KMLEKYKERLN [TLK2_Y259]: the enrichment score was inactive: 0.887.
In the case of SSPVLYLSPET [TJP1_Y931_P930L], the enrichment score is inactive: 0.613.
For the molecule KQLYAYKMLMA [TMC2_Y209], the enrichment score is inactive: 1.41.
Take VRSNHYDPEED [TJP1_Y1346]: the enrichment score was inactive: 0.454.
As for DASENYFVMDS [TMEM240_Y77_T80M], the enrichment score is inactive: 0.666.
Take GCCSWYRGWAP [TIMP3_Y195_Y191C]: the enrichment score was inactive: 2.11.
Turning to KRLYAYKMLMA [TMC2_Y209_Q205R], the enrichment score is active: 3.23.
For the molecule CFCSWYRGWAP [TIMP3_Y195_G190C_YF], the enrichment score is active: 3.96.
Same read-out and setting: then LINSVYGCSRQ [TMPRSS6_Y290_T287N], with inactive: 0.754; and GFCSWYRGWAP [TIMP3_Y195_YF], with inactive: 1.08.
For the molecule YQCKHYACIRQ [TIMP3_Y182_S179C], the enrichment score is active: 4.09.
The same measure, in the same setting: then VTPSEYLEIVR [TMEM130_Y412_E407V], with inactive: 0.955; and VSSPKYGSDDE [TMCC2_Y473], with inactive: 0.622.
Consider FGFPGYQSKHF [TIMP3_Y177_YF], for which the enrichment score is inactive: 0.813.
As for LITSVYGCSRQ [TMPRSS6_Y290], the enrichment score was inactive: 1.01.
For the molecule FSNVLYRPRGP [TMIGD2_Y197_A202P_YF], the enrichment score was inactive: 0.236.
Take DQLVKYGVNPG [TMPO_Y127]: the enrichment score was inactive: 0.774.

The target in another assay is SHP2 N-SH2 domain L43F. Described as above. As to conditions: peptide library: pTyr-Var.
With CYCSWYRGWAP [TIMP3_Y195_G190C], the enrichment score is active: 3.51.
Turning to KMLEKYKERLN [TLK2_Y259], the enrichment score is inactive: 0.898.
Turning to SSPVLYLSPET [TJP1_Y931_P930L], the enrichment score is inactive: 2.15.
For the molecule KQLYAYKMLMA [TMC2_Y209], the enrichment score is inactive: 1.34.
Take VRSNHYDPEED [TJP1_Y1346]: the enrichment score is inactive: 0.967.
Same read-out and setting: then DASENYFVMDS [TMEM240_Y77_T80M], with inactive: 0.517; and GCCSWYRGWAP [TIMP3_Y195_Y191C], with inactive: 2.09; and KRLYAYKMLMA [TMC2_Y209_Q205R], with inactive: 3.05.
Still for that read-out and setting: then CFCSWYRGWAP [TIMP3_Y195_G190C_YF], with active: 4.03; and LINSVYGCSRQ [TMPRSS6_Y290_T287N], with inactive: 0.586.
Turning to GFCSWYRGWAP [TIMP3_Y195_YF], the enrichment score was inactive: 0.736.
With YQCKHYACIRQ [TIMP3_Y182_S179C], the enrichment score was active: 3.64.
Same read-out and setting: next, VTPSEYLEIVR [TMEM130_Y412_E407V]: inactive: 0.589; VSSPKYGSDDE [TMCC2_Y473]: inactive: 0.516; FGFPGYQSKHF [TIMP3_Y177_YF]: inactive: 0.917.
Take LITSVYGCSRQ [TMPRSS6_Y290]: the enrichment score is inactive: 0.771.
With FSNVLYRPRGP [TMIGD2_Y197_A202P_YF], the enrichment score is inactive: 0.289.
Take DQLVKYGVNPG [TMPO_Y127]: the enrichment score was inactive: 0.737.

Another assay deals with SHP2 N-SH2 domain T42A. Described as above. The note with it: peptide library: pTyr-Var.
CYCSWYRGWAP [TIMP3_Y195_G190C]: the enrichment score was active: 3.27.
As for KMLEKYKERLN [TLK2_Y259], the enrichment score was inactive: 0.794.
As to SSPVLYLSPET [TJP1_Y931_P930L], the enrichment score was active: 3.24.
Regarding KQLYAYKMLMA [TMC2_Y209], the enrichment score is inactive: 1.38.
Regarding VRSNHYDPEED [TJP1_Y1346], the enrichment score was inactive: 0.302.
For the molecule DASENYFVMDS [TMEM240_Y77_T80M], the enrichment score was inactive: 0.586.
For the molecule GCCSWYRGWAP [TIMP3_Y195_Y191C], the enrichment score was inactive: 1.84.
With KRLYAYKMLMA [TMC2_Y209_Q205R], the enrichment score was inactive: 3.06.
With CFCSWYRGWAP [TIMP3_Y195_G190C_YF], the enrichment score is inactive: 2.98.
The same measure, in the same setting: then LINSVYGCSRQ [TMPRSS6_Y290_T287N], with inactive: 0.665; and GFCSWYRGWAP [TIMP3_Y195_YF], with inactive: 0.747.
On to YQCKHYACIRQ [TIMP3_Y182_S179C], for which the enrichment score is inactive: 2.68.
Turning to VTPSEYLEIVR [TMEM130_Y412_E407V], the enrichment score is inactive: 0.665.
Take VSSPKYGSDDE [TMCC2_Y473]: the enrichment score is inactive: 0.538.
Consider FGFPGYQSKHF [TIMP3_Y177_YF], for which the enrichment score is inactive: 0.845.
For the molecule LITSVYGCSRQ [TMPRSS6_Y290], the enrichment score is inactive: 0.711.
As to FSNVLYRPRGP [TMIGD2_Y197_A202P_YF], the enrichment score is inactive: 0.311.
DQLVKYGVNPG [TMPO_Y127]: the enrichment score was inactive: 0.784.

Another assay addresses SHP2 N-SH2 domain T52S. The assay is described as above. The note with it: peptide library: pTyr-Var.
Take CYCSWYRGWAP [TIMP3_Y195_G190C]: the enrichment score was inactive: 3.1.
As for KMLEKYKERLN [TLK2_Y259], the enrichment score is inactive: 0.906.
In the case of SSPVLYLSPET [TJP1_Y931_P930L], the enrichment score is inactive: 2.3.
For KQLYAYKMLMA [TMC2_Y209], the enrichment score is inactive: 1.27.
In the case of VRSNHYDPEED [TJP1_Y1346], the enrichment score is inactive: 0.433.
Consider DASENYFVMDS [TMEM240_Y77_T80M], for which the enrichment score was inactive: 0.794.
Turning to GCCSWYRGWAP [TIMP3_Y195_Y191C], the enrichment score was inactive: 2.21.
Still for that read-out and setting: then KRLYAYKMLMA [TMC2_Y209_Q205R], with inactive: 3; and CFCSWYRGWAP [TIMP3_Y195_G190C_YF], with active: 3.6.
With LINSVYGCSRQ [TMPRSS6_Y290_T287N], the enrichment score was inactive: 1.04.
With GFCSWYRGWAP [TIMP3_Y195_YF], the enrichment score was inactive: 0.83.
Still for that read-out and setting: next, YQCKHYACIRQ [TIMP3_Y182_S179C]: active: 3.54; VTPSEYLEIVR [TMEM130_Y412_E407V]: inactive: 0.767.
Consider VSSPKYGSDDE [TMCC2_Y473], for which the enrichment score was inactive: 0.55.
As for FGFPGYQSKHF [TIMP3_Y177_YF], the enrichment score was inactive: 0.805.
On to LITSVYGCSRQ [TMPRSS6_Y290], for which the enrichment score is inactive: 0.842.
Regarding FSNVLYRPRGP [TMIGD2_Y197_A202P_YF], the enrichment score is inactive: 0.214.
As for DQLVKYGVNPG [TMPO_Y127], the enrichment score is inactive: 0.832.

The target of another assay is SHP2 N-SH2 domain wild-type. Described as above. As to conditions: peptide library: pTyr-Var.
Consider CYCSWYRGWAP [TIMP3_Y195_G190C], for which the enrichment score was active: 3.95.
As for KMLEKYKERLN [TLK2_Y259], the enrichment score was inactive: 0.962.
On to SSPVLYLSPET [TJP1_Y931_P930L], for which the enrichment score is inactive: 1.1.
On to KQLYAYKMLMA [TMC2_Y209], for which the enrichment score was inactive: 1.38.
Turning to VRSNHYDPEED [TJP1_Y1346], the enrichment score is inactive: 0.423.
As to DASENYFVMDS [TMEM240_Y77_T80M], the enrichment score was inactive: 0.563.
Same read-out and setting: then GCCSWYRGWAP [TIMP3_Y195_Y191C], with inactive: 1.78.
The same measure, in the same setting: then KRLYAYKMLMA [TMC2_Y209_Q205R], with inactive: 3.09; and CFCSWYRGWAP [TIMP3_Y195_G190C_YF], with active: 4.33.
Consider LINSVYGCSRQ [TMPRSS6_Y290_T287N], for which the enrichment score was inactive: 0.829.
Take GFCSWYRGWAP [TIMP3_Y195_YF]: the enrichment score is inactive: 1.26.
Turning to YQCKHYACIRQ [TIMP3_Y182_S179C], the enrichment score was active: 3.26.
For the molecule VTPSEYLEIVR [TMEM130_Y412_E407V], the enrichment score was inactive: 0.902.
For the molecule VSSPKYGSDDE [TMCC2_Y473], the enrichment score was inactive: 0.531.
The same measure, in the same setting: then FGFPGYQSKHF [TIMP3_Y177_YF], with inactive: 0.816.
On the same count and under the same terms, next, LITSVYGCSRQ [TMPRSS6_Y290]: inactive: 1.12; FSNVLYRPRGP [TMIGD2_Y197_A202P_YF]: inactive: 0.277; DQLVKYGVNPG [TMPO_Y127]: inactive: 1.01.

The values are drawn from the supplement of paper PMC10369915.
